Results published in PubChem BioAssay AID1865 (National Center for Advancing Translational Sciences (NCATS), 2009).
“And” between values parts separate entries of the source, which are not always exact repeats. Equal entries are not always repeated. Out of some 280,000 compounds screened, about 540 (0.19%) were called active. The inconclusive results got no clear call from the source; some entries with a clear call stand among them for comparison. Calls come from the whole dose curve; as a rule, active = well fitted activation curve with a large enough effect; inconclusive = small, poorly fitted or top-dose-only effect; inactive = flat fitted curve, though single readings scatter. A potency beside an inconclusive call is a rough fit, not a confirmed value.

assay: Quantitative High-Throughput Screen for Regulators of Epigenetic Control; conditions: murine LDR cells, GFP reporter derepression, 30 h; series mostly up to 53.9 µM; note: nearly all actives have a fitted effect of over 60% in size
Method in brief: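 Reporter derepression read as number of fluorescent GFP-positive objects, 20-120 um in size, counted by laser-scanning cytometer. Mouse LDR line with an epigenetically silenced CMV-GFP locus; compound incubation 30 h, 37 C.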
Potency is the fitted concentration of half-maximal effect; tags give direction and shape of the fitted curve.

Row | SMILES | Potency
1 | COc1cc(NC(=O)c2cc3cc4ccc(C)cc4nc3o2)cc(OC)c1OC | inactive
2 | COC(=O)Cn1c(=NC(=O)c2nc3ccccc3s2)sc2cc(S(C)(=O)=O)ccc21 | inconclusive: 10 µM [activator, partial curve]
3 | O=C(NC1CCCc2ccccc21)c1ccc(Br)cc1 (configuration not stated) | inactive
4 | COc1ccccc1N1CCN(C(=O)C2CCCN(S(=O)(=O)c3ccc4c(c3)CCCN4C(C)=O)C2)CC1 (configuration not stated) | inactive
5 | CC1CCN(C(c2nnnn2CCc2ccccc2)C(C)C)CC1 (configuration not stated) | inconclusive: 35.5 µM [activator, single point]
6 | COc1ccc(NC(=O)/C(Cl)=C(/Cl)S(=O)(=O)Cc2ccc(C)cc2)cn1 | inconclusive: 5.62 µM [activator, single point]
7 | COc1ccc(-c2nnc(C3CCN(S(=O)(=O)c4cccc(Cl)c4)CC3)o2)cc1 | inconclusive: 35.5 µM [activator, single point]
8 | Cc1cc(C)cc(NC(=O)Nc2ccc(N3CCCCC3)cc2)c1 | inconclusive: 14.1 µM [activator, single point]
9 | Cc1oc2nc(SCCCC(=O)NCCO)nc(N)c2c1C | inactive
10 | CCN(CC)C(=O)Cn1cc(C(=O)C(=O)NCC2COc3ccccc3O2)c2ccccc21 (configuration not stated) | inactive
11 | CCOC(=O)c1[nH]c(=O)[nH]c1CSc1nc(C)cc(C)n1 | inconclusive: 15.8 µM [activator, single point]
12 | O=C(Cc1ccc([N+](=O)[O-])cc1)N1CCc2ccccc2C1 | inconclusive: 14.1 µM [activator, single point]
13 | Cc1cnc(CNc2nc(-c3ccc(N(C)C)cc3)nc3ccccc23)cn1 | inconclusive: 5.01 µM [activator, single point]
14 | Cc1cc(NC(=O)CSc2nnc(-c3ccccc3)o2)no1 | inconclusive: 28.2 µM [activator, single point]
15 | Cn1c(SCC(=O)c2ccccc2)nnc1-c1ccc(O)cc1 | inactive
16 | Cc1ccc(S(=O)(=O)N(CC(=O)N2CCc3ccccc3C2)c2cccc(Cl)c2)cc1 | inconclusive: 35.5 µM [activator, single point]
17 | CCOc1ccc(NC(=O)c2ccc(Br)o2)c([N+](=O)[O-])c1 | inconclusive: 35.5 µM [activator, single point]
18 | CC(NC(=O)CN1CCN(c2ncccn2)CC1)c1ccc(F)cc1 (configuration not stated) | inactive
19 | COc1ccc(C2C(C(C)=O)=C(O)C(=O)N2C)c(OC)c1 (configuration not stated) | inconclusive: 14.1 µM [activator, partial curve]
20 | CC(C)(C)c1ccc(C(=O)Nc2ccc(-c3nc4ccccc4o3)c(O)c2)cc1 | inconclusive: 25.1 µM [activator, single point]
21 | NC(=O)N/N=C/c1c(Sc2nnnn2-c2ccccc2)nc2ccccn2c1=O | inactive
22 | CCOC(=O)/C=c1\s/c(=C\c2ccc(C#N)cc2)c(=O)n1CC(=O)Nc1cccc(C)c1C | inconclusive: 11.2 µM [activator, partial curve]
23 | O=C(Nc1ccc2c(c1)OCCO2)C1CCCN(S(=O)(=O)c2cccc3nsnc23)C1 (configuration not stated) | inactive

Row | SMILES | Potency
24 | O=C1Cc2cc(S(=O)(=O)N3CCN(c4cccc(Cl)c4)CC3)ccc2N1 | inconclusive: 28.2 µM [activator, single point]
25 | COc1ccccc1NC(=O)/C(C#N)=C/c1cc([N+](=O)[O-])ccc1N1CCCC1 | inconclusive: 31.6 µM [activator, single point]
26 | CCN1C(C(=O)c2ccccc2)=C(OC(=O)COc2ccc(C)cc2)c2ccccc2S1(=O)=O | inactive
27 | Cc1ccc2nc(COc3cccc(NC(=O)Nc4ccc(C)c(Cl)c4)c3)cc(=O)n2c1 | inconclusive: 17.8 µM [activator, single point]
28 | O=C(/C=C/c1ccccc1)c1cc(Br)ccc(=O)c1O | inconclusive: 35.5 µM [activator, single point]
29 | COc1ccc(Cl)cc1NCc1nnc2n1CCCCC2 | inconclusive: 8.91 µM [activator, partial curve]
30 | Cc1ccc(Cn2c(=O)n(Cc3ccccc3)c(=O)c3oc4ccccc4c32)cc1 | inactive
31 | CCOC(=O)c1c(-c2ccc(C)cc2)csc1/N=C(\C)C1=C(O)c2ccccc2C1=O | inconclusive: 25.1 µM [activator, single point]
32 | COc1ccccc1-c1cc(-c2ccccc2)nc(SC(C(N)=O)c2ccccc2)c1C#N (configuration not stated) | inconclusive: 7.94 µM [activator, partial curve]
33 | COC(=O)C1=NN(C(=O)c2ccc(C)cc2)C(O)(c2ccc(Cl)cc2)C1 (configuration not stated) | inactive
34 | C=CCN=c1scc(C)n1/N=C/c1ccc(O)c(O)c1 | inconclusive: 12.6 µM [activator, partial curve]
35 | Cc1ccc(SCCNC(=O)c2ccc(C)c(S(=O)(=O)Nc3ccccc3C)c2)cc1 | inactive
36 | COc1ccc(-c2noc(CNC(=O)c3ccccc3Br)n2)cc1 | inactive
37 | N#C/C(=C\c1ccc(/C=C(/C#N)c2nn(CCO)c(N)c2C#N)cc1)c1nn(CCO)c(N)c1C#N | inconclusive: 14.1 µM [activator, partial curve]
38 | COCCN(CCOC)S(=O)(=O)c1ccc(C(=O)Nc2sc3c(c2C(=O)OC)CCN(C)C3)cc1 | inconclusive: 35.5 µM [activator, single point]
39 | Cc1ccc(S(=O)(=O)N2CCC(N3CCN(Cc4ccccc4)C(=O)C3=O)CC2)cc1C | inactive
40 | CCCCN(CCCNC(=O)c1cc(Nc2cccc(SC)c2)nc2ccccc12)Cc1ccccc1 | active: 35.5 µM
41 | O=C1Nc2ccccc2Oc2cc([N+](=O)[O-])cc(Oc3ccccc3)c21 | inconclusive: 31.6 µM [activator, single point]
42 | Cc1ccc2nc(NC(=O)CSc3[nH]c(=O)ncc3C)sc2c1 | inconclusive: 1.58 µM [activator, partial curve]
43 | COc1cc(/C=C(\C#N)c2nc3ccc(C)cc3[nH]2)ccc1OCc1ccc(C)cc1 | active: 5.62 µM
44 | CSc1nnc(-c2ccco2)c(-c2ccco2)n1 | inconclusive: 20 µM [activator, single point]
45 | N#C/C(=C\c1ccc(-c2ccccc2[N+](=O)[O-])o1)C(N)=O | inconclusive: 35.5 µM [activator, single point]
46 | Cc1noc(NS(=O)(=O)c2ccc(NC(=O)CC34CC5CC(CC(Br)(C5)C3)C4)cc2)c1C | inactive

Row | SMILES | Potency
47 | Cc1cccc(Nc2nnc(SCc3cc(=O)n4cc(C)ccc4n3)s2)c1 | inconclusive: 35.5 µM [activator, single point]
48 | COc1ccc(CC(=O)NCc2nnc(SCC(=O)Nc3nccs3)n2C)cc1 | inconclusive: 14.1 µM [activator, single point]
49 | CCOc1cc(C(=O)CCC(=O)OCC(=O)Nc2ccc(C)c(S(=O)(=O)N(C)C)c2)ccc1O | inconclusive: 6.31 µM [activator, single point]
50 | Cc1cc2c(n1-c1ccc(C(=O)NCCc3ccc(Cl)cc3)cc1)CCCC2 | inconclusive: 35.5 µM [activator, single point]
51 | Cc1ccc(-n2nnnc2SCc2nc3sc(C)c(C)c3c(=O)[nH]2)cc1 | inconclusive: 35.5 µM [activator, single point]
52 | Cc1ccc(C)c2nc3sc(C(=O)N4CCCc5ccccc54)c(N)c3cc12 | inconclusive: 6.31 µM [activator, single point]
53 | COc1ccc(C2NC(=S)NC3=C2CCCC3=C2SCCS2)cc1 (configuration not stated) | inconclusive: 28.2 µM [activator, single point]
54 | COCCCNc1c2c3c(cccc3[nH]c1=O)C(=O)c1ccccc1-2 | inconclusive: 14.1 µM [activator, single point]
55 | Cc1ccc(S(=O)(=O)NCCC(=O)N2CCCCC2)cc1 | inactive
56 | Cc1cccc(NC(=O)Cn2nnc(-c3nc(-c4ccncc4)no3)c2N)c1 | inactive
57 | COc1ccc(-c2ccc3c(N)c(C(=O)c4ccc(OC)c(OC)c4)sc3n2)cc1 | inconclusive: 22.4 µM [activator, single point] and inconclusive: 35.5 µM [activator, single point]
58 | COc1ccccc1C(=O)Nc1ccccc1OCc1cc(=O)n2c(C)csc2n1 | inconclusive: 35.5 µM [activator, single point]
59 | Cc1cc(C)c(Cn2c3ccccc3c3cnn(CC(=O)NCc4cccs4)c(=O)c32)c(C)c1 | inconclusive: 25.1 µM [activator, single point]
60 | CN(C)C(=O)CSc1nnc(-c2cc(-c3cccs3)nc3ccccc23)o1 | inconclusive: 31.6 µM [activator, single point]
61 | CC1CCc2c(sc(Nc3nc4c(F)cccc4s3)c2C(N)=O)C1 (configuration not stated) | inactive
62 | Cc1ccc(NC(=O)CSc2nnc(-c3ccc([N+](=O)[O-])cc3)o2)c(C)c1 | inactive
63 | Cc1ccccc1N1CCN(S(=O)(=O)c2nnc(NC(=O)c3ccc(C(C)C)cc3)s2)CC1 | inactive
64 | Cc1cc(C)n(-c2nc3ccccc3nc2Nc2ccc(N(C)C)cc2)n1 | inconclusive: 31.6 µM [activator, single point]
65 | O=C(CSc1nc2nc3c(cc2c(=O)n1-c1ccccc1)CCCC3)Nc1ccccc1 | inconclusive: 35.5 µM [activator, single point]
66 | COc1cccc(NC2=C(Cl)C(=O)OC2OC(=O)c2ccco2)c1 (configuration not stated) | inconclusive: 31.6 µM [activator, single point]
67 | CCCOCc1ccc(O)c2ncccc12 | active: 3.55 µM
